*1 amine or outer side, *2 acyl side, *3 side chain or, on linkers, in order; H or OH if unused. Where a SMILES comes first, the peptide text is derived from it. [ ]: non-standard residue; d: D form. The star is where a group is joined. ξ: configuration not given here. Pro(3R,4S-CMe2) = CC1(C)[C@@H]2[C@@H](C(=O)O)NC[C@@H]21; Pro(4R-isopentyl) = CC(C)CC[C@H]1CN[C@H](C(=O)O)C1; X54 = O=C(C(=O)[*:2])C(CCC(F)(F)F)N[*:1]; X12 = CCC[C@H](N[*:1])C(=O)C(=O)[*:2]; X32 = O=C(C(=O)[*:2])C(CC1CCC1)N[*:1]; Val(3-OH) = CC(C)(O)[C@H](N)C(=O)O; Phg = N[C@H](C(=O)O)c1ccccc1; Tle = CC(C)(C)[C@H](N)C(=O)O; ξPhg = NC(C(=O)O)c1ccccc1; Boc = CC(C)(C)OC(=O)*
target: HCV NS3/NS4A protease (strain 1a) (Hepatitis C virus genotype 1a, UniProt P27958); test: biochemical; settings: Table 5; HCV NS3/NS4A protease, 30° C., pH 6.5; read-out: Ki* Range

Ki [nM]	Structure (SMILES)
1 to 100	CNC(=O)C(=O)C(CC1CC1)NC(=O)[C@@H]1[C@@H]2[C@H](CN1C(=O)[C@@H](NC(=O)O[C@H]1CCC[C@@H]1C)C1Cc3ccccc3C1)C2(C)C (some centres unmarked)
1 to 100	C=CCCC(NC(=O)[C@@H]1[C@@H]2[C@H](CN1C(=O)[C@@H](NC(=O)NC1CCCC1)C(C)(C)C)C2(C)C)C(=O)C(=O)NCC=C (some centres unmarked)
101 to 1000	C=CCNC(=O)C(=O)C(COC)NC(=O)[C@@H]1[C@@H]2[C@H](CN1C(=O)[C@@H](NC(=O)OC(C)(C)C)C1CCCCC1)C2(C)C (some centres unmarked)
101 to 1000	CCCC(NC(=O)[C@@H]1[C@H]2[C@@H](CN1C(=O)C(NC(=O)OC(C)(C)C)C1CCCCC1)C2(C)C)C(=O)C(=O)NCC(=O)NC1CCCCC1 (some centres unmarked)
101 to 1000	C=CCCNC(=O)C(=O)C(CCC=C)NC(=O)[C@@H]1[C@@H]2[C@H](CN1C(=O)[C@@H](NC(=O)NC(C)(C)CC(C)(C)C)C(C)(C)C)C2(C)C (some centres unmarked)
> 1000	C=CCNC(=O)C(=O)C(CCC)NC(=O)[C@@H]1CC[C@H](C)N1C(=O)[C@@H](NC(=O)OCC1CC1)C1CCCCC1 (some centres unmarked)
1 to 100	C=CCCC(NC(=O)[C@@H]1C2C(CN1C(=O)[C@@H](NC(=O)NC13CC4CC(CC(C4)C1)C3)C1CCCCC1)C2(C)C)C(=O)C(=O)NCCC(=O)OC(C)(C)C (some centres unmarked)

same assay, conditions: Table 5; HCV NS3/NS4A protease, spectrophotometric assay, 30° C., pH 6.5; read-out: Ki* Range

Ki [nM]	Structure (SMILES)
101 to 1000	CC1(C)[C@H]2[C@@H](C(=O)NC(CC3CCC3)C(=O)C(N)=O)N(C(=O)[C@@H](NC(=O)N3CCCC3)C3CCCCC3)C[C@H]21 (some centres unmarked)
101 to 1000	C=CCNC(=O)C(=O)C(CCC)NC(=O)[C@@H]1[C@@H]2[C@H](CN1C(=O)[C@@H](NC(=O)O[C@@H](C)C(C)C)C1CCCCC1)C2(C)C (some centres unmarked)
101 to 1000	CC1(C)C2CN(C(=O)[C@@H](NC(=O)OCC3CC3)C3CCCCC3)[C@H](C(=O)NC(CC3CCC3)C(=O)C(N)=O)C21 (some centres unmarked)
101 to 1000	C=CCCC(NC(=O)[C@@H]1[C@H]2[C@@H](CN1C(=O)[C@@H](NC(=O)OC(C)(C)C)C(C)(C)C)C2(C)C)C(=O)C(=O)NCCCNC(=O)OC(C)(C)C (some centres unmarked)
> 1000	C=CCCC(NC(=O)[C@@H]1[C@H]2C[C@H]2CN1C(=O)[C@@H](NC(=O)OC(C)(C)C)C1CCCCC1)C(=O)C(=O)NCCC(=O)OC(C)(C)C (some centres unmarked)
> 1000	C=CCCC(NC(=O)[C@@H]1[C@H]2[C@@H](CN1C(=O)[C@@H](NC(=O)NC1C[C@H]1c1ccccc1)C1Cc3ccccc3C1)C2(C)C)C(=O)C(=O)NCC=C (some centres unmarked)
> 1000	C=CCCC(NC(=O)[C@@H]1[C@H]2[C@@H](CN1C(=O)[C@@H](NC(=O)C(O)C(C)C)C1CCCCC1)C2(C)C)C(=O)C(=O)NCC=C (some centres unmarked)

Structure (SMILES)	Ki [nM]
CCC[C@H](NC(=O)[C@@H]1C[C@@H](CCC(C)C)CN1C(=O)[C@@H](NC(=O)OC(C)(C)C)C(C)(C)C)C(=O)C(=O)NCC(=O)NC(C(=O)N(C)C)c1ccccc1 (stereo partly drawn) (Boc-[Tle][Pro(4R-isopentyl)][X12]G[ξPhg]-NMe2)	1 to 100

same assay, conditions: Table 6; HCV NS3/NS4A protease, 30° C., pH 6.5; read-out: Ki*

Ki [nM]	Structure (SMILES)
1 to 100	CN(C)C(=O)[C@@H](NC(=O)CNC(=O)C(=O)[C@@H](CC1CC1)NC(=O)[C@@H]1[C@H]2CC(C)(C)O[C@H]2CN1C(=O)[C@@H](NC(=O)OC(C)(C)C)C1CCCCC1)c1cccs1
1 to 100	CC1(NC(=O)N[C@H](C(=O)N2C[C@H]3[C@@H]([C@H]2C(=O)NC(CC2CC2)C(=O)C(=O)NCC(=O)NCc2ccccc2)C3(C)C)C(C)(C)C)CCCCC1 (some centres unmarked)
101 to 1000	CC(C)(C)NC(=O)N[C@H](C(=O)N1C[C@H]2[C@@H]([C@H]1C(=O)NC(CC1(F)CCC1)C(=O)C(N)=O)C2(C)C)C(C)(C)C (some centres unmarked)
101 to 1000	C=CCCC(NC(=O)[C@@H]1[C@@H]2[C@H](CN1C(=O)[C@@H](NC(=O)NC(C)(C)C)C1CCCCC1)C2(C)C)C(=O)C(=O)NCC(=O)OC(C)(C)C (some centres unmarked)
1 to 100	CC(C)(C)NC(=O)N[C@H](C(=O)N1C[C@H]2[C@@H]([C@H]1C(=O)N[C@@H](CC1CCC1)C(=O)C(N)=O)C2(C)C)C(C)(C)C
1 to 100	COC(=O)C(C)(C)OC(=O)N[C@H](C(=O)N1C[C@H]2[C@@H]([C@H]1C(=O)NC(CC1CC1)C(=O)C(N)=O)C2(Cl)Cl)C(C)(C)C (some centres unmarked)

Structure (SMILES)	Ki [nM]
CN(C)C(=O)[C@@H](NC(=O)CNC(=O)C(=O)C(CCC(F)(F)F)NC(=O)[C@@H]1[C@@H]2[C@H](CN1C(=O)[C@@H](NC(=O)OC(C)(C)C)C(C)(C)C)C2(C)C)c1ccccc1 (stereo partly drawn) (Boc-[Tle][Pro(3R,4S-CMe2)][X54]G[Phg]-NMe2)	1 to 100
CN(C)C(=O)[C@@H](NC(=O)CNC(=O)C(=O)C(CC1CCC1)NC(=O)[C@@H]1[C@@H]2[C@H](CN1C(=O)[C@@H](NC(=O)OC(C)(C)C)C(C)(C)O)C2(C)C)c1ccccc1 (stereo partly drawn) (Boc-[Val(3-OH)][Pro(3R,4S-CMe2)][X32]G[Phg]-NMe2)	1 to 100

Reference: patent US7592316B2, “Peptides as NS3-serine protease inhibitors of hepatitis C virus” (Schering Corporation, priority 2000, dated 2009)
